# Data reported in publication PMC4336329 (PLoS ONE, 2015).
# Among all 310,000 compounds or so, about 2,200 (0.71%) showed an effect of 50% or more. The effect is printed as a negative number. Some of the results follow.
# Target: human ether-à-go-go-related gene (hERG) potassium channel (human, UniProt Q12809)
# Assay: primary screen, population patch clamp on CHO cells stably expressing hERG
# Sequence of human ether-à-go-go-related gene (hERG) potassium channel (Q12809 whole entry, looked up): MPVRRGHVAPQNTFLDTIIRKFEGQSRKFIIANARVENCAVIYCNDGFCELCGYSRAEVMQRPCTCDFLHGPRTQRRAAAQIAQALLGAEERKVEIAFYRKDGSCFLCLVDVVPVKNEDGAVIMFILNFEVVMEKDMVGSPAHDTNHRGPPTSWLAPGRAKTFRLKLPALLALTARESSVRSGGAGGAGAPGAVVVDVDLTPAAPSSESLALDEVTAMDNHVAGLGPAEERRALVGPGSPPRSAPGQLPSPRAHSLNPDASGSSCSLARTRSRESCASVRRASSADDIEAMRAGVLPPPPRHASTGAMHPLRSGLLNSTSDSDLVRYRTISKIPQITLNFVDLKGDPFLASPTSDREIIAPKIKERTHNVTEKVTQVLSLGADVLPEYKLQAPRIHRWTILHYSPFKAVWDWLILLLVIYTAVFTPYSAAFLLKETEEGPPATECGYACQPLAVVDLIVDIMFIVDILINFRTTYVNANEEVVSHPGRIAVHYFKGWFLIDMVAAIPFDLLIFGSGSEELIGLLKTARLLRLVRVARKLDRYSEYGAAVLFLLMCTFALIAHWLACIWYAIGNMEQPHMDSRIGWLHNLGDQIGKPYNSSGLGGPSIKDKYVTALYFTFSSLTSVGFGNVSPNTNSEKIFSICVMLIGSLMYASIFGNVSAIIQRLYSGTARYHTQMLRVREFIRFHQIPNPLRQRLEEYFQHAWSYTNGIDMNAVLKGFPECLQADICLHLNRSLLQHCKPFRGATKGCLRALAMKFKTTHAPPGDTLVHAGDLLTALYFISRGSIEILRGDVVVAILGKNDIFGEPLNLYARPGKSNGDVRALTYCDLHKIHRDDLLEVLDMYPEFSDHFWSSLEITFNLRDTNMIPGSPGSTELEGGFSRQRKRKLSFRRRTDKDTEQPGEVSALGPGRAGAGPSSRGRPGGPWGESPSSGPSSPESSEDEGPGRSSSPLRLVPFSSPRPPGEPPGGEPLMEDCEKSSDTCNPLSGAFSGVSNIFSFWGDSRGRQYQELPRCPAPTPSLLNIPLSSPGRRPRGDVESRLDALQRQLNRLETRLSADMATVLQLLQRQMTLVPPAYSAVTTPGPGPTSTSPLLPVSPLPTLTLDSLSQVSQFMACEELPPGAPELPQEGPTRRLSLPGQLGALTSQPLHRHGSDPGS
row,SMILES,"hERG current change (%, negative = inhibition) at 1uM [%]"
1,COc1ccccc1S(=O)(=O)Nc1cccc(-c2nnc3n2CCCCC3)c1,14.8
2,Cc1cccc(C)c1NC(=O)CCc1nnc2ccc(N3CCCC3)nn12,10.1
3,O=C(Cn1ncc(N2CCCC2)c(Cl)c1=O)c1ccc(Cl)cc1,5.94
4,O=C(CSc1nnc(COc2ccccc2)n1-c1ccccc1)c1cccs1,11.5
5,Cc1cc(C)cc(N2C(=O)NC(=O)/C(=C\c3cccn3-c3ccc(Cl)cc3)C2=O)c1,12
6,CCc1ccc(OCCNC(=O)c2ccc(S(=O)(=O)N(C)C)cc2)cc1,-10.4
7,Cc1ccc(S(=O)(=O)N2CCOCC2)cc1C(=O)OCC(=O)Nc1ccc2[nH]c(=O)[nH]c2c1,2.59
8,CC(C)(C)n1ncc2c(=O)n(CC(=O)N3CCCC3)cnc21,14.8
9,COC(=O)Cc1cc(=O)[nH]c(/N=C(\N)Nc2ccccc2)n1,9.34
10,O=C(NCc1ccc2c(c1)OCO2)C1CC(=O)N(C2CCCCCCC2)C1 (centres unmarked),-1.72
11,COc1ccc(-c2nnc3n(CCc4ccccc4)c(=O)c4ccccc4n23)c(OC)c1,6.94
12,COc1cccc(CNC(=O)CCNS(=O)(=O)c2cccc3nsnc23)c1,5.65
13,COc1ccc(NCC(O)Cn2cnc3c2c(=O)n(C)c(=O)n3C)cc1 (centres unmarked),13
14,CCCCCCCOC(=O)c1ccc(OC(=O)c2cccnc2)cc1,12.1
15,CC1=CC(=O)OC1Cc1ccncc1 (centres unmarked),15.3
16,CCC(C)c1ccc(C(CC)NC(=O)C2CCCO2)cc1 (centres unmarked),17.4
17,CCc1nnc(NC(=O)CCN(c2cc(C)cc(C)c2)S(=O)(=O)c2ccc(Cl)cc2)s1,15
18,Cc1ccc(CC(=O)N/N=C/c2ccc3c(c2)OCO3)cc1,2.72
19,O=C(NC1CCCCC1)C(c1ccccc1)N(C(=O)c1csnn1)C1CCCC1 (centres unmarked),8.77
20,Fc1ccccc1N1CCN(Cc2c(F)cccc2F)CC1,14.1
21,CC1(C)Cc2c(C#N)c(N3CCNCC3)nc(-c3ccco3)c2CS1,7.63
22,O=S(=O)(Nc1cccc(Cl)c1)c1ccc(-n2cccn2)cc1,7.36
23,O=C(NNS(=O)(=O)c1ccc(F)cc1)c1ccc(O)cc1,14.5

row,SMILES,"hERG current change (%, negative = inhibition) at 1uM [%]"
1,CCOC(=O)[C@@H]1[C@H]2COc3cc(OC)ccc3[C@@H]2N2C(=O)N(c3ccc(C(F)(F)F)cc3)C(=O)[C@]12C,14.8
2,COCCOC(=O)C1=C(C)NC(=O)NC1/C=C/c1ccccc1 (centres unmarked),11
3,Cc1nn(-c2ccc(F)cc2)c(Cl)c1/C=C1\C(=O)Nc2ccccc21,6.42
4,COc1ccc(NC(=O)CN(C)CC(=O)Nc2cccc(F)c2)cc1Cl,7.33
5,COc1ccc(N2C(=O)CCC(C(=O)N3CCN(c4ccccn4)CC3)C2c2ccc(F)cc2)cc1 (centres unmarked),-21.3
6,O=C(OC(C(=O)NCc1cccs1)c1ccccc1Cl)c1ccco1 (centres unmarked),9.49
7,Cc1nnc(NC(=O)c2ccc3c(c2)OCO3)s1,13.4
8,CCn1c(N)c(C(=O)N2CCOCC2)sc1=S,13.3
9,COc1ccc(CNC(=O)C2CCCN2S(=O)(=O)c2ccc(S(=O)(=O)N(C)C)cc2)cc1 (centres unmarked),5.21
10,Cc1cccc(C)c1OCC(=O)NCc1ccccc1,11.7
11,COc1cc(C(=O)NCC(=O)N/N=C/c2ccc(-c3cccc([N+](=O)[O-])c3)o2)cc(OC)c1OC,6.2
12,CC1CCCCC1NC(=O)C1Cc2ccccc2CN1S(C)(=O)=O (centres unmarked),11.2
13,CCn1c(SCC(=O)N2c3ccccc3Sc3ccccc32)nc2c1c(=O)n(C)c(=O)n2C,7.08
14,O=C(Nc1ccc(OC(F)(F)F)cc1)c1cnccn1,12.6
15,COC(=O)c1ccc(COC(=O)[C@@H]2CC(O)CN2S(=O)(=O)c2ccccc2[N+](=O)[O-])cc1 (some centres unmarked),10.7
16,COc1ccc(-c2nc(C#N)c(N3CCCCCC3)o2)cc1,-19.1
17,S=c1nc(-c2ccccc2)c(-c2ccccc2)n[nH]1,11.4
18,COc1ccccc1C(=O)NC(=O)COC(=O)CCOc1cc(C)ccc1C,14.1
19,CC1CCCN(CC(O)COCC2COc3ccccc3O2)C1.Cl (centres unmarked),-8.2
20,CC(OC(=O)CNC(=O)c1ccccc1F)C(=O)Nc1nc(-c2ccccc2)cs1 (centres unmarked),7.25
21,CN(C)C(=O)CSc1nnc([C@H](Cc2c[nH]c3ccccc23)NC(=O)OC(C)(C)C)o1,6.45
22,COc1ccc(C2CC3(CC(C)(C)NC(=S)N3)Oc3cc(O)cc(C)c32)cc1 (centres unmarked),9.23
23,O=C(CNC(=O)c1ccccc1)Nc1cccc(C(F)(F)F)c1,1.47

row,SMILES,"hERG current change (%, negative = inhibition) at 1uM [%]"
1,COc1cc(C(=O)N2CCN(C(=O)c3cc(-c4ccc(Br)cc4)n[nH]3)CC2)cc(OC)c1OC,-38.2
2,CCCC(=O)Oc1c(S(=O)(=O)c2ccc(C)cc2)c(C)nn1C(C)(C)C,0.768
3,COc1ccc(OC)c(/C=C/C(=O)N2C(=O)c3cccc(N)c3C2=O)c1,7.87
4,COc1cccc(C(=O)NNC(=O)C(=O)N2CCCCC2)c1,13.4
5,CC(=O)c1sc(NC(=O)CN2C(=O)NC3(CCCC3)C2=O)nc1-c1ccccc1,12.2
6,CCOCc1cnc(C)nc1NCC(=O)c1c(C)[nH]c2ccccc12,13.3
7,CC(C)C(O)(c1ccccc1)C(CN1CCOCC1)c1ccccc1.Cl (centres unmarked),12.4
8,CCOC(=O)c1ccccc1NC(=O)COC(=O)C(CC(C)C)NC(N)=O (centres unmarked),7.56
9,CC1CCCC(C)N1C(=O)CSc1nc2ccccc2s1 (centres unmarked),12.5
10,Cn1c(=O)oc2cc(S(=O)(=O)N3CCC(N4CCCCC4)CC3)ccc21,6.79
11,COc1ccc(-n2c(C)cc(C(=O)CSc3ccc(NC(C)=O)cc3)c2C)cc1,12.3
12,O=C(NCc1cccnc1)c1ccc(COc2ccc(Cl)cc2Cl)o1,4.44
13,Cc1cc(Cl)ccc1NC(=S)NCCN1CCOCC1,6.23
14,CCNC(=O)CC1S/C(=N/N=C(\C)c2ccccc2)NC1=O (centres unmarked),1.65
15,CCOc1cc(S(=O)(=O)NCc2cccnc2)c(C)cc1C,11.9
16,O=C(c1ccccc1)C(O)(Cc1ccccc1)c1ccccc1 (centres unmarked),7.17
17,Cc1occc1C(=O)Nc1cccc([N+](=O)[O-])c1C,8.63
18,COc1ccc(/C=C/C(=O)Nc2cc(C)on2)cc1,6.93
19,O=C(CSc1ccc(Br)cc1)Nc1ccccc1N1CCOCC1,14.2
20,COc1cc(CO)ccc1OCC(=O)Nc1ccc(Br)cc1,10.2
21,COc1ccc(Cl)cc1C(=O)NNC(=S)NC1CCCCC1,13.2
22,C[N+]1(C)C2CCC1CC(OC(=O)c1ccccc1)C2.[Br-] (centres unmarked),4.1
23,O=C(c1ccncc1)N1CCCC(N2CCN(c3ccc(F)cc3)CC2)C1 (centres unmarked),-19.9

row,SMILES,"hERG current change (%, negative = inhibition) at 1uM [%]"
1,S=c1nc(NCCc2ccccc2Cl)c2ccccc2[nH]1,17.4
2,Cc1ccc(-c2csc(NC(=O)CCNC(=O)c3ccc(Cl)cc3)n2)cc1,11
3,O=C(COc1ccc(Cl)cc1)N(Cc1ccc(F)cc1)C1CCS(=O)(=O)C1 (centres unmarked),-4.13
4,CCc1cccc(NC(=O)Cn2c(=O)oc3cc(S(=O)(=O)N4CCOCC4)ccc32)c1,17.5
5,CC1(C)Cc2cccc(OCC(=O)Nc3ccccc3N3CCOCC3)c2O1,-2.2
6,O=C1c2ccccc2C(=O)N1CCSc1ncn[nH]1,19
7,CC(C(=O)NCc1ccccc1)N1C(=O)C2CC=C(Cl)CC2C1=O (centres unmarked),9.04
8,CC(C)NC(=O)COc1ccc(S(=O)(=O)N2CCCC2)cc1,13
9,CCc1[nH]nc(C(=O)N2CCCC(Nc3ccc(C(C)C)cc3)C2)c1C (centres unmarked),0.282
10,CCn1c(SCC(=O)NC2CCS(=O)(=O)C2)nnc1-c1ccccc1 (centres unmarked),6.72
11,COC1=NS(=O)(=O)c2ccccc21,6.4
12,CCCCCCc1ccc(O)cc1O,18.3
13,CCN(CC(O)CON=C1c2ccccc2-c2ccccc21)S(=O)(=O)c1ccc(C)cc1 (centres unmarked),7.09
14,O=C(C(c1ccccc1)c1ccccc1)N1CCC(c2nc(-c3ccccc3Cl)no2)CC1,12.1
15,NC(=O)COC(=O)c1ccc(Cl)c(S(=O)(=O)N2CCCCCC2)c1,2.11
16,CCCCCC1CC1C(=O)N/N=C/c1ccc(N(C)C)cc1 (centres unmarked),3.81
17,O=C(/C=C/Nc1ccccc1Oc1ccccc1)c1ccco1,17.2
18,Brc1ccc(C2C3=C(Nc4ncnn42)c2ccccc2OC3c2ccncc2)cc1 (centres unmarked),1.53
19,Cc1ccc(C(=O)Nc2c3c(nn2C(C)(C)C)CS(=O)(=O)C3)cc1[N+](=O)[O-],21.2
20,C=CCOC(=O)C1=C(C)NC(=O)NC1c1ccc2c(c1)OCO2 (centres unmarked),0.316
